Test results from PubChem BioAssay AID463173 (ICCB-Longwood Screening Facility, Harvard Medical School, 2010).
In all, about 52,000 compounds went through this assay and about 4,300 (8.3%) were called active. Rule as the data show it: active = survival mostly below about 52% (no sharp cut-off); inactive = mostly above about 56%. The list shows a part of the results.

tested on: DeltatarO mutant; experiment: growth inhibition of S. aureus wild type versus tarO mutant, primary screen, teichoic acid synthesis inhibitors, RN4220, OD600 (AID 463173); details: OD600, 18 h, hits give low values, screened at 18.75 µg/mL (by protocol)

| SMILES | survival |
| --- | --- |
| Cc1ccc2c(CNCCc3ccco3)c(C(=O)O)n(Cc3ccc(F)cc3)c2c1 | inactive: 59% |
| COc1ccc(NC(=O)CCCc2nnc3n(C(C)C)c(=O)c4sccc4n23)cc1Cl | inactive: 93% |
| CCOc1ccc(NC(=O)Cn2cc(C(=O)C3CC3)c3ccccc32)cc1 | inactive: 94% |
| CCN1CCC(N(Cc2ccc(F)cc2)C(=O)Nc2ccc(C)c(F)c2)CC1 | inactive: 94% |
| COc1ccc(C(=O)Nc2ccc(-c3nc4cc(C)ccc4o3)c(O)c2)cc1 | inactive: 70% |
| O=C(CSc1nccn1Cc1ccco1)Nc1ccc(OC(F)(F)F)cc1 | inactive: 77% |
| Cc1cc(=O)[nH]c2nnc(SCc3cccc(C(F)(F)F)c3)n12 | inactive: 79% |
| Cc1ccccc1CSc1nc2c([nH]c3ccccc32)c(=O)n1C | inactive: 89% |
| CCOC(=O)c1cc(S(=O)(=O)Nc2ccccc2OCC)[nH]n1 | inactive: 72% |
| CCCc1cc(=O)[nH]c(SCc2nc(-c3ccccc3F)no2)n1 | inactive: 131% |
| COc1ccc(-n2c(=O)c3c4c(sc3n3c(SC(C)C)nnc23)COC(C(C)C)C4)cc1 (centres undefined) | inactive: 66% |
| CC1=[N+](CCC#N)CC(C)(C)C1 | inactive: 111% |
| CCCn1c(=NC(=O)c2c(-c3c(F)cccc3Cl)noc2C)c(C(=O)OCC)cc2c(=O)n3ccccc3nc21 | inactive: 164% |
| C=CCn1c(N)c(C(N)=O)sc1=S | inactive: 81% |
| CC(=O)c1cccc(Nc2ccc3cc(S(=O)(=O)N4CCCC4)ccc3n2)c1 | inactive: 101% |
| COc1ccc(NC(=O)c2cc(=O)c3ccc(C)c(C)c3o2)cc1Cl | inactive: 65% |
| Cc1ccc(-n2ncc(C(=O)NCCN3CCc4ccccc4C3)c2C2CCNCC2)cc1C | inactive: 95% |
| CCOc1ccccc1NC(=O)c1nn(C)c2c1CSc1ccccc1-2 | inactive: 78% |
| COc1ccc(C)cc1NC(=O)CN1C(=O)COc2ccc(S(=O)(=O)NC3CCCC3)cc21 | inactive: 87% |
| CCOc1ccc(-c2csc(-c3c(N)c(C(=O)c4ccc5c(c4)OCO5)n4ccccc34)n2)cc1 | inactive: 104% |
| Cn1nc(-c2ccc(N3CCCCC3)c(NC(=O)c3ccc(Cl)cc3)c2)c2ccccc2c1=O | inactive: 66% |
| CN(C)CCNC(=O)c1ccc(Cn2c(=O)c3cccn3c3cccnc32)cc1 | inactive: 54% |
| Cc1ccc(CC(=O)NC2CCSC2=O)cc1 (centres undefined) | inactive: 104% |

| SMILES | survival |
| --- | --- |
| Cc1cccc(NC(=O)c2oc3ccc(S(=O)(=O)N4CCC5(CC4)OCCO5)cc3c2C)c1C | inactive: 116% |
| Cc1cc(Nc2ccccc2O)c2ccccc2n1 | inactive: 103% |
| CC(=O)c1ccc(N2CCN(c3ncnc4c3cnn4C)CC2)cc1 | inactive: 62% |
| Cc1ccc2c(c1)-c1ncc(C(=O)c3cc(Br)ccc3O)cc1CO2 | inactive: 62% |
| COc1ccc(-n2nc(C(=O)Nc3cccc(C)n3)c3c4ccccc4n(C)c3c2=O)cc1 | inactive: 63% |
| CC1CCN(S(=O)(=O)c2ccc3c(c2)N(CC(=O)NCCCN2CCCC(C)C2)C(=O)CS3)CC1 (centres undefined) | inactive: 75% |
| Cc1cccc(CNC(=O)c2ccc(NC(=O)N3CCSc4ncccc43)cc2)c1 | inactive: 72% |
| CCOc1ccc(NC(=O)C(C)Sc2nc3ncccc3o2)cc1 (centres undefined) | inactive: 90% |
| Cc1cc(C)cc(NC(=O)Cn2c(=O)n(Cc3ccc4c(c3)OCO4)c(=O)c3oc4ccccc4c32)c1 | inactive: 58% |
| CC(C)C(c1nnnn1C1CCCC1)N1CCN(C(=O)c2ccco2)CC1 (centres undefined) | inactive: 86% |
| N#CCSc1nc2ccccc2c(=O)n1-c1ccccc1 | inactive: 101% |
| Cc1cccc(C(=O)Nc2nc(-c3nnn(-c4cc(C)ccc4C)c3C)ns2)c1 | inactive: 94% |
| O=C(c1cnn2c1NC(c1cccs1)CC2C(F)(F)F)N1CCSCC1 (centres undefined) | inactive: 74% |
| O=C(Cn1c(=O)n(Cc2nc(-c3ccccc3)no2)c(=O)c2cc3c(cc21)OCO3)Nc1cccc(C(F)(F)F)c1 | inactive: 91% |
| COc1ccc(-c2ccc(CCC(=O)O)n2-c2cc(Cl)ccc2O)cc1 | inactive: 52% |
| CCOC(=O)c1c(C)[nH]c(C)c1S(=O)(=O)N(C)CC(=O)Nc1cccc(C(F)(F)F)c1 | inactive: 92% |
| CCOC(=O)C1CCN(C(=O)Cn2ncc3c([nH]c4ccccc43)c2=O)CC1 | active: 25% |
| COc1cccc(C2CC(=O)Nc3c2c(=O)n(C)c2nc4ccccc4n32)c1 (centres undefined) | inactive: 67% |
| CSc1cccc(NC(=O)CN2C(=O)COc3ccc(S(=O)(=O)N4CCC(C)CC4)cc32)c1 | inactive: 88% |
| Cc1ccc(C)c(NC(=O)Cn2ccn(-c3ccc(F)cc3)c(=O)c2=O)c1 | inactive: 104% |
| Cc1cc(Cl)nc(SCC(=O)c2ccccc2)n1 | inactive: 50% |
| Cc1ccccc1CNC(=O)c1ccc2[nH]c(C)c(C)c2c1 | inactive: 98% |
| COCCN(C(C)=O)c1nnc(-c2cccnc2)s1 | inactive: 88% |

| SMILES | survival |
| --- | --- |
| CC(C)(C)c1ccccc1NC(=O)c1cnn2c(C(F)F)cc(-c3ccccc3)nc12 | inactive: 64% |
| C=CCSc1nc2ccccc2c(=O)n1CC1CCCO1 (centres undefined) | inactive: 80% |
| CN(C)S(=O)(=O)c1ccc(S(=O)(=O)N(CC(=O)Nc2ccccc2)C2CC2)cc1 | inactive: 94% |
| COc1ccccc1NC(=O)CSc1oc(-c2ccc(F)cc2)nc1S(=O)(=O)c1ccc(Br)cc1 | active: 49% |
| Cn1c(=O)c2c(SCC(=O)Nc3ccc(F)cc3F)nc(C3CCCC3)nc2n(C)c1=O | inactive: 93% |
| CCCCCOc1ccc(C(CC(N)=O)CC(=O)O)cc1 (centres undefined) | inactive: 96% |
| Cc1cc(N2CCC(C(=O)NCCC(C)C)CC2)n2nc(C)c(-c3ccc(Cl)cc3)c2n1 | inactive: 82% |
| Cc1ccc(CN(C(=O)c2ccccc2[N+](=O)[O-])c2ccccn2)cc1 | inactive: 54% |
| CCC(C)NC(=O)Cn1c(-c2cccs2)cc2cc(Cl)ccc21 (centres undefined) | inactive: 94% |
| CCOC(=O)c1c(NC(=O)c2cc(-c3ccc(Cl)cc3)on2)sc(C)c1C | inactive: 68% |
| COc1ccc(CCNC(=O)C2CCCN2C(=O)NC2CCCCC2)cc1OC (centres undefined) | inactive: 90% |
| Cc1ccc(-c2nc3c4ccccc4n(CC(=O)N4CCN(c5ccc(F)cc5)CC4)c(=O)n3n2)cc1 | inactive: 74% |
| Cc1cc(C)cc(Nc2cc(C)nc3nc(-c4ccco4)nn23)c1 | inactive: 94% |
| Cc1ccc(C(CC(=O)Nc2ccc(F)c(Cl)c2)N2Cc3ccccc3C2=O)cc1 (centres undefined) | inactive: 88% |
| CC(C)c1ccc(NC(=O)CCn2c(=O)c3cccn3c3ccccc32)cc1 | inactive: 57% |
| COc1cccc(CNCCSc2nnnn2C)c1OCc1ccc(F)cc1 | inactive: 52% |
| Cc1ccc(N2CC(NC(=O)C3CC3)CC2=O)cc1C (centres undefined) | inactive: 94% |
| CCOC(=O)c1ccn(-c2nc(-c3cccc(OC)c3)cc(C(F)(F)F)n2)n1 | active: 18% |
| Cc1nc2sccn2c(=O)c1S(=O)(=O)Nc1ccc(N2CCN(C(=O)C(C)C)CC2)cc1 | inactive: 89% |
| COc1cc(C(=O)Nc2nonc2-c2ccc(Cl)cc2)cc(OC)c1OC | inactive: 49% |
| CCOC(=O)c1[nH]c(C)c(CCC(=O)Nc2ccc(Br)c(C)c2)c1C | inactive: 81% |
| Cc1ccc(Cl)cc1NC(=O)Cn1ncc2c(C)n(Cc3ccccc3F)c(C)c2c1=O | inactive: 52% |
| CC(C)(C)NC(=O)c1ccc2nc(CCc3ccccc3)oc2c1 | inactive: 57% |

| SMILES | survival |
| --- | --- |
| CC1CN(C(=O)CCC(=O)NCc2ccccc2)c2cc(Cl)ccc2O1 (centres undefined) | inactive: 74% |
| COc1ccc(-c2nc(-c3ccccc3)c(-c3ccc(F)cc3)[nH]2)c(OC)c1C | active: 5% |
| Cc1cc(C)cc(N2C(=O)CCSC23C(=O)N(Cc2ccccc2)c2ccccc23)c1 (centres undefined) | inactive: 67% |
| CCOc1ccc(CCNC(=O)c2ccc3c(c2)sc2nc(-c4ccc(F)cc4)cn23)cc1OCC | active: 42% |
| O=S(=O)(NCCc1csc2nc(-c3ccc(F)cc3)nn12)c1ccc(Oc2ccccc2)cc1 | inactive: 88% |
| Cc1ccc(C2C=C(c3ccc(Cl)cc3)Nc3nc(NC(=O)c4ccco4)nn32)cc1 (centres undefined) | inactive: 67% |
| Cc1ccc(C)c(N2CCN(S(=O)(=O)c3ccc4c(c3)OCCO4)CC2)c1 | inactive: 76% |
| CCCC12CN3CC(CCC)(CN(C1)C3c1c(C)[nH]c(=O)[nH]c1=O)C2=O (centres undefined) | inactive: 109% |
| O=C(Nc1ccc(F)cc1F)N1CCN(c2ccc(Cl)c(Cl)c2)CC1 | active: 48% |
| CCc1nn(Cc2c(C)cc(C)cc2C)c(=O)c2cc3cc(C)ccc3n12 | inactive: 88% |
| Cn1nnnc1SCCCNCc1cc(Cl)ccc1OCc1ccccc1F | inactive: 70% |
| Cc1sc2ncnc(SCC(N)=O)c2c1C | inactive: 115% |
| Cc1ccc(NC(=O)Cn2cnc3sc(C)c(S(=O)(=O)N4CCN(c5ncccn5)CC4)c3c2=O)cc1F | inactive: 68% |
| Cc1cccc(N2CCN(S(=O)(=O)c3c(C(=O)N4CCC(C)CC4)c(C)n(C)c3C)CC2)c1C | inactive: 89% |
| COc1ccc(NC(=O)CSC2=Nc3ccccc3C3=NC(CC(=O)NCc4ccc5c(c4)OCO5)C(=O)N23)cc1 (centres undefined) | inactive: 81% |
| CC1CCN(C(=O)c2cc3n(n2)C(C(F)(F)F)CC(c2ccco2)N3)CC1 (centres undefined) | inactive: 81% |
| CCOc1ccc(C(c2c(O)cc(C)n(Cc3ccco3)c2=O)N2CCN(c3ccccc3)CC2)cc1 (centres undefined) | inactive: 75% |
| CCCc1cnc2c(c1SCC(=O)Nc1ccccc1F)c(=O)n(C)c(=O)n2C | inactive: 119% |
| CCOC(=O)c1cnc(SC)nc1Nc1ccccc1 | inactive: 84% |
| Cc1cccc(CNC(=O)C2CCN(S(=O)(=O)c3ccc4c(c3)CCCN4C(=O)C3CCC3)CC2)c1 | inactive: 70% |
